# Screen size: about 360,000 compounds; about 16,000 (4.4%) were called active. This list was built around the results that the source calls inconclusive (neither active nor inactive); the mix of calls is not that of the screen. Calls come from the whole dose curve; as a rule, active = well fitted inhibition curve with a large enough effect; inconclusive = small, poorly fitted or top-dose-only effect; inactive = no such curve, though single readings can be large or run the other way. Where the call is inconclusive, the potency comes from a doubtful curve fit.
# Biological target: Bromodomain adjacent to zinc finger domain protein 2B (Homo sapiens) (UniProt Q9UIF8)
# Sequence of UniProt Q9UIF8 (Q9UIF8 whole entry, looked up, the tested form may be a part): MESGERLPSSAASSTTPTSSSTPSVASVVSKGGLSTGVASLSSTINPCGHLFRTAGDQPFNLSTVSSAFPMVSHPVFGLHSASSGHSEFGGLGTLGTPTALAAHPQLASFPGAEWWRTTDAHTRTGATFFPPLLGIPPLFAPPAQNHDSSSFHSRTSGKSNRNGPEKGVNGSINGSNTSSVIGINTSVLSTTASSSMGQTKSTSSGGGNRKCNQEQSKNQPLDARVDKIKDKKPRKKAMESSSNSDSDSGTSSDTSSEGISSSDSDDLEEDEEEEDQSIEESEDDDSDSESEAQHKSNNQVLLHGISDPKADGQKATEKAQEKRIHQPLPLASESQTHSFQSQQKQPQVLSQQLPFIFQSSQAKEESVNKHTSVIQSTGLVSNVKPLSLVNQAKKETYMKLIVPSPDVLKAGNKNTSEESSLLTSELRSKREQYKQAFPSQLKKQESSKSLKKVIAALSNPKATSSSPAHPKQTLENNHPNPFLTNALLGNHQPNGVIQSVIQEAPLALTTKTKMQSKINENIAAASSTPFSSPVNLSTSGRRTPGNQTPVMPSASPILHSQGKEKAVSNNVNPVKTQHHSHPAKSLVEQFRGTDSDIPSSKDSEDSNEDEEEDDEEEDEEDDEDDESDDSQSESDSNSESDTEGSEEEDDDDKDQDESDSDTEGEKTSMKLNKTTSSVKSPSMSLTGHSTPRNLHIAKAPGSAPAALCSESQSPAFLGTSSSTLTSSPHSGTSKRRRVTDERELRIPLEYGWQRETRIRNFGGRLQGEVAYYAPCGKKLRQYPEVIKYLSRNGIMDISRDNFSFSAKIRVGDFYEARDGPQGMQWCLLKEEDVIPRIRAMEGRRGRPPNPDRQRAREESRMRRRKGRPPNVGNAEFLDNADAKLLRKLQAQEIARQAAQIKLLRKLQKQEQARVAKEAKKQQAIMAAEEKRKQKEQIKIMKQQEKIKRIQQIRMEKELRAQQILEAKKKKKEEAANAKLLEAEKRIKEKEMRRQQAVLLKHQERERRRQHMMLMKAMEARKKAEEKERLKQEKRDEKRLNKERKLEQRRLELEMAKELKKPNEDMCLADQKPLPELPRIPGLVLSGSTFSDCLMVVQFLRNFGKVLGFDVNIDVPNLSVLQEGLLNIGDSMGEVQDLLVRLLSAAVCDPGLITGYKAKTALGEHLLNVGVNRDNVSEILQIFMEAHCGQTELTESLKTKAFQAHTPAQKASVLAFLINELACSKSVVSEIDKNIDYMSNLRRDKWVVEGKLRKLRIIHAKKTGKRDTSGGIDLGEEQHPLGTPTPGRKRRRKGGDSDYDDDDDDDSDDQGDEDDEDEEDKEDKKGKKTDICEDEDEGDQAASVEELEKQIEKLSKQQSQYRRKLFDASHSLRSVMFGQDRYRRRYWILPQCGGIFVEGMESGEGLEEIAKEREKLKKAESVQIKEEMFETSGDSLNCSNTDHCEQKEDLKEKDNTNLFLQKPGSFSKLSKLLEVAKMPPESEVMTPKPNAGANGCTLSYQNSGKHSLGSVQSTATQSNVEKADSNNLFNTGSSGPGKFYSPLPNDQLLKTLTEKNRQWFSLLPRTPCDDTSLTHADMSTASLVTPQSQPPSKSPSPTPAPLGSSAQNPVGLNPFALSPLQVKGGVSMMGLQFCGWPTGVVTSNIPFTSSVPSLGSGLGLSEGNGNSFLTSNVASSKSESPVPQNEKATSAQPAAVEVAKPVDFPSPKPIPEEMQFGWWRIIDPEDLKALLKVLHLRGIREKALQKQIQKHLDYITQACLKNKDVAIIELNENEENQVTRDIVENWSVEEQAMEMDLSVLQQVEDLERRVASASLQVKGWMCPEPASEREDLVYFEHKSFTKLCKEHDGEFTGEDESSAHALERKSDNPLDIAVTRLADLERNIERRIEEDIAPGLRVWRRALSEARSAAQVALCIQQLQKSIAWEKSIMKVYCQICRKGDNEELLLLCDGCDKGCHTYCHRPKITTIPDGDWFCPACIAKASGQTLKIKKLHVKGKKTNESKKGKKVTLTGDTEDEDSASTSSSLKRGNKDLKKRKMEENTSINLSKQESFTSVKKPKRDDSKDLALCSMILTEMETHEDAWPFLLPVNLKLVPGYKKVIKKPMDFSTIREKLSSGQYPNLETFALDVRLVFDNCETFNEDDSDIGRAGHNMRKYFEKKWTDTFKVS
# Assay: qHTS Assay for Inhibitors of BAZ2B; note: nearly all actives have a fitted effect of over 60% in size
# Conditions: AlphaScreen BAZ2B-H3K14Ac peptide displacement; activity change, negative = inhibition: at 114 µM (top of the series)
# How it was run: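 Protein-peptide AlphaScreen: BAZ2B 50 nM, b-H3K14Ac 50 nM, 1x PBS pH 7.4 + 0.01% Tween-20. Preincubation 30 min RT; cpd 30 min RT (top 110 uM); beads 20 min RT, light-protected.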
# % is set by controls: 0 for no effect and ±100 for the full control effect; potency is the fitted concentration of half-maximal effect; tags give direction and shape of the fitted curve.
SMILES,Potency,"activity change, negative = inhibition"
O=[N+]([O-])c1ccccc1C1Nc2cccc3cccc(c23)N1,active: 31.6 µM,
COc1cc(/C=C(\C#N)c2nc3c(s2)CC(C)CC3)ccc1O (configuration not stated),active: 50.1 µM,
CCOC(=O)c1c(-n2c(C)cc(C=O)c2C)sc2c1CCCC2,"inconclusive: 50.1 µM [inhibitor, partial curve]",
Cc1nn2cc(-c3ccc(N)cc3)nc2s1,"inconclusive: 89.1 µM [inhibitor, single point]",
O=C(CCCCl)NC(=S)Nc1ccc(N2CCOCC2)cc1,,inactive: -15.7%
CNc1nc(-c2ccc3c(c2)CCN3C(=O)c2ccccc2C)cs1,active: 50.1 µM,
O=C(Nc1ccccc1C(F)(F)F)c1cc2ncc(CCCl)cn2n1,,inactive: 1.41%
Cc1nc2ccccn2c1C(=O)N/N=C/c1cc(C)n(-c2ccc(Cl)cc2)c1C,"inconclusive: 44.7 µM [inhibitor, partial curve]",
CC1=C(C(N)=O)C(c2ccccn2)n2nc(SCc3ccccc3)nc2N1 (configuration not stated),,inactive: 8.64%
O=C(O)CN1C(=O)/C(=C/c2ccsc2)SC1=S,active: 79.4 µM,
Cc1ccccc1NC(=O)CCn1nc(-c2ccc(Cl)cc2)c2ccccc2c1=O,"inconclusive: 89.1 µM [inhibitor, single point]",
COc1cccc(C(=O)NNC(=O)c2cccnc2)c1,,inactive: 4.69%
CCCN(CC(=O)Nc1c(C)cccc1CC)C(=O)SCC,,inactive: 3.57%
CN(C)c1ccc(C(CNC(=O)c2ccc(F)cc2)c2c[nH]c3ccccc23)cc1 (configuration not stated),active: 12.6 µM,
Cc1cc(C)c2sc(N(CCN(C)C)C(=O)c3ccc4ccccc4c3)nc2c1,"inconclusive: 12.6 µM [inhibitor, partial curve]",
COc1ccc(C(=O)COC(=O)c2n[nH]c3ccccc23)c(OC)c1,"inconclusive: 89.1 µM [inhibitor, single point]",
CCCCNC(=O)c1cc([N+](=O)[O-])[nH]n1,"inconclusive: 89.1 µM [inhibitor, single point]",
CC(=O)Nc1nc(-c2ccccc2)c(-c2ccccc2)o1,"inconclusive: 89.1 µM [inhibitor, single point]",
O=C(Cn1ccn(-c2ccc(F)cc2)c(=O)c1=O)NCCc1ccccc1,"inconclusive: 89.1 µM [inhibitor, single point]",
O=C1CC(/C=C/c2ccccn2)=Nc2ccccc2N1,"inconclusive: 79.4 µM [inhibitor, single point]",
COc1cccc(NC(=O)C2CCN(S(=O)(=O)c3ccc4c(c3)NC(=O)CO4)CC2)c1,,inactive: -8.24%
Cc1cccc(C(=O)Nc2nnc(-c3ccncc3)o2)c1,active: 22.4 µM,
Cc1nc2nc(CNC(=O)OC(C)(C)C)nn2c(C)c1CCC(=O)Nc1ccc2c(c1)OCO2,"inconclusive: 79.4 µM [inhibitor, single point]",
CC(C)C(c1nnnn1Cc1ccccc1)N1CCc2ccccc2C1 (configuration not stated),"inconclusive: 100 µM [inhibitor, single point]",

SMILES,Potency,"activity change, negative = inhibition"
O=[N+]([O-])c1cc(Cl)ccc1NCCNc1ncc(C(F)(F)F)cc1Cl,"inconclusive: 10 µM [inhibitor, full curve, poor fit]",
Cc1ccc(C2C(C(=O)c3cc4ccccc4o3)=C(O)C(=O)N2CCN2CCOCC2)o1 (configuration not stated),"inconclusive: 89.1 µM [inhibitor, single point]",
CS(=O)(=O)c1ccccc1-c1nnc(NC(=O)CCS(=O)(=O)c2ccc(Cl)cc2)o1,"inconclusive: 89.1 µM [inhibitor, single point]",
c1ccc(Cc2nnc3sc(-c4ccco4)nn23)cc1,"inconclusive: 50.1 µM [inhibitor, partial curve]",
CC(C)(C)C(=O)Nc1sc2c(c1C#N)CCN(Cc1ccccc1)C2,,inactive: 6.37%
O=C(Cn1cc(SCc2cccc(F)c2)c2ccccc21)N1CCOCC1,"inconclusive: 79.4 µM [inhibitor, single point]",
c1ccc(Cn2ncc3c(NCc4ccco4)ncnc32)cc1,active: 79.4 µM,
CCOc1cc(N2CCOCC2)c(OCC)cc1NC(=O)c1nn(CC)c(=O)c2ccccc12,active: 50.1 µM,
COc1ccc(C2CC(C(F)(F)F)n3nc(C(=O)O)c(Br)c3N2)cc1 (configuration not stated),"inconclusive: 100 µM [inhibitor, single point]",
Oc1ccc(Nc2nc(N3CCCC3)c3ccccc3n2)cc1,"inconclusive: 44.7 µM [inhibitor, partial curve]",
CSC1=N/C(=C\c2ccc(Cl)cc2)C(=O)N1N(C)C,,inactive: -26.6%
Cc1ccc(OCC(=O)Nc2ccc3nc(SCC(=O)N4CCCC4)sc3c2)cc1,"inconclusive: 28.2 µM [inhibitor, single point]",
COc1ccc(N(C(=O)c2snc(C(N)=O)c2N)C(C(=O)NC2CCCCC2)c2ccc(F)cc2)c(OC)c1 (configuration not stated),"inconclusive: 89.1 µM [inhibitor, single point]",
O=C(CSc1ccc(Cl)cc1)NC(=O)NCc1ccco1,"inconclusive: 50.1 µM [inhibitor, partial curve]",
COc1cc(C)c(S(=O)(=O)NCCCn2ccnc2)cc1C,"inconclusive: 79.4 µM [inhibitor, single point]",
CC1CCN(c2oc(-c3cccs3)nc2S(=O)(=O)c2ccc(Cl)cc2)CC1,"inconclusive: 11.2 µM [inhibitor, full curve]",
Cc1ccc(CNC(=O)c2ccc(-n3c(C)cc4c3CCCC4)cc2)cc1,,inactive: -11.6%
Cc1cc(C)c(C)c(OCCOCCNCc2ccccc2)c1,"inconclusive: 89.1 µM [inhibitor, single point]",
CCCc1[nH]c2ccc(C(=O)OC)cc2c1CCC,"inconclusive: 44.7 µM [inhibitor, partial curve]",
COCc1cc(=O)n2[nH]c(N)nc2n1,active: 50.1 µM,
COCCCNCCCOc1ccc(Cl)cc1Br,"inconclusive: 89.1 µM [inhibitor, single point]",
Cc1[nH]c2ccccc2c1/C=C/c1cc[n+](C)cc1,active: 56.2 µM,
CC1(c2ccc3ccccc3c2)NC(=O)N(CC(=O)Nc2ncccc2O)C1=O (configuration not stated),"inconclusive: 89.1 µM [inhibitor, single point]",

# Reference: PubChem BioAssay AID504333 (National Center for Advancing Translational Sciences (NCATS), 2011)
